# From the BET-seq Pho4 binding data (Le et al. 2018)
# Some of the results follow. These are noisy estimates, calculated here from bound and input reads.
# Target: T1, Pho4 (S. cerevisiae) (UniProt P07270)
# T1 sequence: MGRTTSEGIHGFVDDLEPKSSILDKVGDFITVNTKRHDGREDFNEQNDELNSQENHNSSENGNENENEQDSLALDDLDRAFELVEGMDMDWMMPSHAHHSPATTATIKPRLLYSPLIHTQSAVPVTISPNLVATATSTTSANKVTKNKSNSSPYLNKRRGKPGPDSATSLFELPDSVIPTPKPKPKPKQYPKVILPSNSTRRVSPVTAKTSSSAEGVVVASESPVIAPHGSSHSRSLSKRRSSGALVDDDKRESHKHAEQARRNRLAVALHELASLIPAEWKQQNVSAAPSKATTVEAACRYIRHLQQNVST
# Test: relative binding free energy (BET-seq); higher = weaker binding
# Settings: reference: library average
row,Sequence,relative binding free energy [kcal/mol]
1,TGTGACACGTGGGGCG,-0.18
2,ATTGGCACGTGATGTA,0.03
3,AGGCTCACGTGAATGG,0.35
4,GCCTTCACGTGTTGGG,0.24
5,TGGGTCACGTGGCTTA,0.17
6,CAGTACACGTGAGGGA,0.47
7,ATTATCACGTGGAGTT,0.2
8,TGCGGCACGTGAGATG,0.18
9,TGGCACACGTGGGAGC,0.04
10,AATGTCACGTGGTAGT,0.1
11,TCTTGCACGTGTTTTG,0.05
12,TGGGCCACGTGTAATT,0.26
13,TGGTACACGTGAGCTG,0.29
14,GATAACACGTGTGTGA,0.08
15,GTTTGCACGTGAAGAA,0.2
16,AGTTTCACGTGCAGTA,0.16
17,GGAGACACGTGTGCTG,0.02
18,GGCGTCACGTGTGTTT,0.13
19,GTGACCACGTGTGGGA,0.18
20,AGTGGCACGTGGAAGT,-0.12
21,GCGTTCACGTGTTGGT,0.34
22,GTCGGCACGTGTGGCG,0.07
23,AGATTCACGTGCGTTT,0.26
24,ATATCCACGTGGAGTG,-0.03
25,TAACTCACGTGGGTTT,-0.04

row,Sequence,relative binding free energy [kcal/mol]
1,GGCGTCACGTGAGGAA,0.33
2,CGTATCACGTGAGGGA,0.18
3,TTGGGCACGTGTTCGC,-0.09
4,TCAATCACGTGGGTTG,0.05
5,AATTGCACGTGTCAGG,0.07
6,ATATACACGTGCTTGG,-0.01
7,CTTGGCACGTGATTGG,0.04
8,CTTGCCACGTGGGCGG,-0.27
9,ATGATCACGTGGTCAT,0.11
10,GGTGTCACGTGTGGGG,0.16
11,GTTGTCACGTGGGCAA,0.04
12,ATTGACACGTGTATAT,0
13,TGTAGCACGTGGTCCG,-0.08
14,TTTCGCACGTGTGTAA,-0.09
15,GTAAACACGTGGTGCG,-0.07
16,GTATGCACGTGTATAT,0.1
17,TCATTCACGTGTTTGC,0.2
18,AAGAACACGTGAGGTG,0.27
19,GGGAACACGTGTTAAG,0.15
20,TGCCGCACGTGGGGGT,-0.29
21,TTCAGCACGTGTAAGT,-0.08
22,CATAGCACGTGGTTTG,-0.12
23,ATATGCACGTGTGGTA,0.04
24,ATCGACACGTGGTTGG,-0.08
25,TTGTGCACGTGCGTCG,-0.05

row,Sequence,relative binding free energy [kcal/mol]
1,TCTGGCACGTGTGTAG,-0.04
2,CTTTTCACGTGAGTCT,0.43
3,TCTAACACGTGGTAGG,0
4,CTATTCACGTGTAGGT,0.14
5,TGGGACACGTGGGGAT,-0.1
6,TTCGGCACGTGCGTTT,-0.16
7,GCTGACACGTGAAGTG,0.45
8,GATTCCACGTGTATGT,0.18
9,AATAGCACGTGAGGCT,0.24
10,TGCTTCACGTGCGAGT,0.28
11,TTTTGCACGTGTAGCG,0.09
12,AGTGACACGTGCTGGA,-0.15
13,TATCCCACGTGTGGGG,-0.05
14,TGTCTCACGTGGGAAT,0.3
15,ACTAGCACGTGTGTGG,-0.02
16,CTTTGCACGTGGTCTG,-0.14
17,CGGAGCACGTGGGTAG,-0.34
18,TCGTACACGTGTTGGT,0.15
19,GGGTTCACGTGAAGGT,0.42
20,TATAGCACGTGTTGTT,-0.05
21,GTAAACACGTGTTGGG,0.1
22,GGGGTCACGTGGCGTC,-0.05
23,TGTGTCACGTGAACTA,0.24
24,ACAAGCACGTGGTATG,-0.1
25,ATGTGCACGTGGTTTG,-0.06

row,Sequence,relative binding free energy [kcal/mol]
1,TGCGGCACGTGTGTTG,-0.06
2,CGGCGCACGTGGTAGT,-0.12
3,TTTAGCACGTGCTGGG,-0.14
4,TTGGGCACGTGTAGCG,0
5,AGTGGCACGTGGGTCA,-0.19
6,GTTTTCACGTGGTAAC,0.3
7,TGGTTCACGTGTTGTG,0.17
8,CTATGCACGTGTATTT,-0.12
9,CTGTGCACGTGATGCT,0.13
10,TTTTTCACGTGGTTGT,0.33
11,GTGTGCACGTGCCGGG,-0.09
12,GGGATCACGTGTGGGT,0.22
13,CGGCGCACGTGGGAGA,-0.11
14,TGTGCCACGTGTGAGG,-0.15
15,GTGGTCACGTGAAGGG,0.42
16,GGGGACACGTGAGGGT,0.35
17,TATCTCACGTGGAGTT,0.1
18,TTACACACGTGCGGTT,-0.02
19,TGGGACACGTGGTGAA,0.05
20,AGGCTCACGTGTATTA,0.29
21,GTATGCACGTGGACTG,0.05
22,GCTTACACGTGTAGGT,0.16
23,TTGATCACGTGGATAA,0.13
24,ACTGTCACGTGGTATG,-0.03
25,GAATGCACGTGGGGGG,-0.18

row,Sequence,relative binding free energy [kcal/mol]
1,ATTATCACGTGTCGGT,0.2
2,GCCGTCACGTGGTGTT,-0.01
3,GCGGGCACGTGGGCTA,-0.21
4,ATTTGCACGTGAGATT,0.23
5,TGATGCACGTGTGTAT,0.03
6,ATGAGCACGTGGTGGA,-0.13
7,CGTCTCACGTGTGGTT,0.2
8,TGAGTCACGTGTTGCT,0.02
9,GTTTACACGTGAGCGG,0.43
10,ATCGTCACGTGTACTT,0.35
11,TACAGCACGTGATTGG,0.23
12,TTTCTCACGTGGATTA,0.21
13,TGGGACACGTGCGATT,0.2
14,CAGGTCACGTGGAGGT,0.03
15,GTTAGCACGTGGATTC,0.1
16,ATGCACACGTGCGGGG,-0.02
17,GTATGCACGTGTTTCT,-0.09
18,CATAGCACGTGGTAGT,-0.1
19,TGAGGCACGTGGTTAC,-0.15
20,ATAGTCACGTGGCGGG,-0.05
21,GCTAGCACGTGGTGCG,-0.11
22,TTTTTCACGTGCTGAT,0.32
23,GGGCACACGTGATGGT,0.32
24,CTGCGCACGTGTGGGG,-0.15
25,CTAGTCACGTGATTTG,0.21

row,Sequence,relative binding free energy [kcal/mol]
1,AGGGCCACGTGGGATA,-0.09
2,AGGAGCACGTGGGACG,-0.1
3,GGGTGCACGTGTGAAC,0.17
4,TTGATCACGTGATGGA,0.32
5,GGTGACACGTGGCGTT,0.09
6,AGGAACACGTGGTTTT,0.06
7,TTTCTCACGTGTTAAA,0.23
8,CATGTCACGTGGAGGG,-0.13
9,ATGAACACGTGTGCGT,0.08
10,GAATGCACGTGGATGG,-0.03
11,TATAGCACGTGGTATG,-0.24
12,GTAATCACGTGTTCTG,0.22
13,TATCTCACGTGGGGGG,0.07
14,TTAGGCACGTGTGAAG,0.01
15,TTCAGCACGTGTAGTT,-0.18
16,GTCTGCACGTGGTTGG,0.06
17,GGTTTCACGTGAAATA,0.31
18,ATTACCACGTGAAGTG,0.31
19,TAGTTCACGTGATTAT,0.31
20,CTAGGCACGTGGGCTA,-0.1
21,TAGTGCACGTGAACGT,0.21
